Test results from paper PMC6555819.
The list shows a part of the results.

Columns and labels:
RARa (Homo sapiens) = biological target: T1, RARa (Homo sapiens) (UniProt P10276); conditions: 270 nM, no RXRa, PBS pH 7.4, 2% milk, 0.02% Triton X-100, 1 mM DTT, BSA, 0.4 mg/ml salmon testes DNA; double strand, one strand shown
T1 sequence: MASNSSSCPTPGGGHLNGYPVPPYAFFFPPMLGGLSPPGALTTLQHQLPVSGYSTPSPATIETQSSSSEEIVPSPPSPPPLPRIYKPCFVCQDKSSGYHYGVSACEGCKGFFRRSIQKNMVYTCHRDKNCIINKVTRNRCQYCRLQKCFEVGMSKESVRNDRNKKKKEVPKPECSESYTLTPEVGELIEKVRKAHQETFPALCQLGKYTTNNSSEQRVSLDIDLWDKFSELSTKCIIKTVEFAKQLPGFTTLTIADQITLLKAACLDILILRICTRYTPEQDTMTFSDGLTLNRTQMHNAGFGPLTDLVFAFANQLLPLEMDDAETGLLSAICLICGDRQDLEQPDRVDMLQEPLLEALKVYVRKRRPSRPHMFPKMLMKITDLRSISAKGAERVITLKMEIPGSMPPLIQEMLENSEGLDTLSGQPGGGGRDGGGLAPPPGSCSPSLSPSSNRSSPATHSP

PXR (Homo sapiens) = biological target: T2, PXR (Homo sapiens) (UniProt O75469); conditions: 270 nM, no RXRa, PBS pH 7.4, 2% milk, 0.02% Triton X-100, 1 mM DTT, BSA, 0.4 mg/ml salmon testes DNA; double strand, one strand shown
T2 sequence: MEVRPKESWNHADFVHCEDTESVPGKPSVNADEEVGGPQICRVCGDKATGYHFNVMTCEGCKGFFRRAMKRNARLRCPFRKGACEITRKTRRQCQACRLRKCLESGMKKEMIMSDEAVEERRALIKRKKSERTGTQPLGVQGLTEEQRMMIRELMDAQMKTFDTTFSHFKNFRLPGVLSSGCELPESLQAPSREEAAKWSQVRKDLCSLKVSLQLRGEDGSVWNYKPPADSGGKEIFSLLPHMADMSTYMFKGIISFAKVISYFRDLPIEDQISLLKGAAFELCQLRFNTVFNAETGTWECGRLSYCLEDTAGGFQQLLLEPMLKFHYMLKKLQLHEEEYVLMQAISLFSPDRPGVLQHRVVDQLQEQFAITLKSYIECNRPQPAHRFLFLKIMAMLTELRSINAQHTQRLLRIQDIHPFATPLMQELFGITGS

PPARg (Homo sapiens) = PPARg (Homo sapiens) (UniProt P37231); conditions: 180 nM, no RXRa, PBS pH 7.4, 2% milk, 0.02% Triton X-100, 1 mM DTT, BSA, 0.4 mg/ml salmon testes DNA; double strand, one strand shown
Chain of UniProt P37231 (P37231 29-505): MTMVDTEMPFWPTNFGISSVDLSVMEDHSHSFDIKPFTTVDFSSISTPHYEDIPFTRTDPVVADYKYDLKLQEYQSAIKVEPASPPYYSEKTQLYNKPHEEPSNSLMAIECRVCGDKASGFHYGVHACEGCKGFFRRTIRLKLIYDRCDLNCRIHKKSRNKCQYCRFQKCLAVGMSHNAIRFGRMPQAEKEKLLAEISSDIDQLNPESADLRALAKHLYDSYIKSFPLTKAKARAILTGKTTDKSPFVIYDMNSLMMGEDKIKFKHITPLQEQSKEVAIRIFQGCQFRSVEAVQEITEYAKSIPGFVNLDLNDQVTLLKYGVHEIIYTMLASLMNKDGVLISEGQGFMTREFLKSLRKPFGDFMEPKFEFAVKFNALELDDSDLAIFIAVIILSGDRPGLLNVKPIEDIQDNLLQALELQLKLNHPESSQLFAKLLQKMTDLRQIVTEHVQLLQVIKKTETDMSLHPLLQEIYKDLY

RARb (Homo sapiens) = biological target: T3, RARb (Homo sapiens) (UniProt P10826); conditions: 270 nM, no RXRa, PBS pH 7.4, 2% milk, 0.02% Triton X-100, 1 mM DTT, BSA, 0.4 mg/ml salmon testes DNA; double strand, one strand shown
T3 sequence: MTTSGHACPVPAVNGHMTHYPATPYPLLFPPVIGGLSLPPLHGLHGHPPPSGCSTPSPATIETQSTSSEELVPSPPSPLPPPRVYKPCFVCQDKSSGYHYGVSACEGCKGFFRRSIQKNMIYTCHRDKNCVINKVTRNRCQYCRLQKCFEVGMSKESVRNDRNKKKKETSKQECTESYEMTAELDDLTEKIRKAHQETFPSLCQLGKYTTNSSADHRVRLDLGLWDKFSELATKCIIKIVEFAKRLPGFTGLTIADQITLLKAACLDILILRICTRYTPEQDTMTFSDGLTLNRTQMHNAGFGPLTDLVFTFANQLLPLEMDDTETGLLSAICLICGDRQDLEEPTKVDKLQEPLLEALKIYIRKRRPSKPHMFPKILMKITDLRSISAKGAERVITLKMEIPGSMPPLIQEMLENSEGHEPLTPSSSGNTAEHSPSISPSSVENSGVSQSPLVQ

VDR (Homo sapiens) = biological target: T4, VDR (Homo sapiens) (UniProt P11473); conditions: 270 nM, no RXRa, PBS pH 7.4, 2% milk, 0.02% Triton X-100, 1 mM DTT, BSA, 0.4 mg/ml salmon testes DNA; double strand, one strand shown
T4 sequence: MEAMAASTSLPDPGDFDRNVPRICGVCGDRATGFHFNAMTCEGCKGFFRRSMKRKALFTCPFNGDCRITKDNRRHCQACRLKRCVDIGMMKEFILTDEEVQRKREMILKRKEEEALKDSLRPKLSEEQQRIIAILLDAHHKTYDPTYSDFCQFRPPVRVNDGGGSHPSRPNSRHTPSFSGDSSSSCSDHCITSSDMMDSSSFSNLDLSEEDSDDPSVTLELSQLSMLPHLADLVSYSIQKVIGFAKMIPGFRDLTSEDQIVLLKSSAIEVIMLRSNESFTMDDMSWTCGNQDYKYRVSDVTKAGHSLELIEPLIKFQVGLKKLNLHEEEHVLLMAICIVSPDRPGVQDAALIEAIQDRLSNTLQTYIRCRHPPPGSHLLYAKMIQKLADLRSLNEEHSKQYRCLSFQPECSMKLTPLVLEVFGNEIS

RARg (Homo sapiens) = biological target: T5, RARg (Homo sapiens) (UniProt P13631); conditions: 270 nM, no RXRa, PBS pH 7.4, 2% milk, 0.02% Triton X-100, 1 mM DTT, BSA, 0.4 mg/ml salmon testes DNA; double strand, one strand shown
T5 sequence: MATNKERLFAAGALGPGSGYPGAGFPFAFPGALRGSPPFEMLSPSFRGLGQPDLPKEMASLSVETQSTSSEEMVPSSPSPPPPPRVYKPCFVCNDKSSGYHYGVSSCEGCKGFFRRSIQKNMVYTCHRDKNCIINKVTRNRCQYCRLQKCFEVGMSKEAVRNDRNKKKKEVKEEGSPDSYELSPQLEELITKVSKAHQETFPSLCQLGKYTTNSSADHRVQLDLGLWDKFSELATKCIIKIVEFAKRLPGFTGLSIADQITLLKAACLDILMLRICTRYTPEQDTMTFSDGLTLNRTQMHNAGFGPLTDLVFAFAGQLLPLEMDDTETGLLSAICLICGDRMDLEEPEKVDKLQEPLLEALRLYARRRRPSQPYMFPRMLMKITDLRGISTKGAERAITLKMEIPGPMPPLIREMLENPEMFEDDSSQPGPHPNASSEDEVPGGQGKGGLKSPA

Sequence: GCGTGTTCTACTGTACTGCAGCTGAGCCGACACTCAGCGATTGACAGCGTAGAATGAAGG
- binding signal (PBM z-score against 500 random probes) (RARa (Homo sapiens)): -0.16

Sequence: GCGAAACTGCTGCAAAGGCCTACTGAAGCCTGACTGGCGATTGACAGCGTAGAATGAAGG
- binding signal (PBM z-score against 500 random probes) (RARa (Homo sapiens)): -0.75

Sequence: GCTAGATATGAGTCTGGCTTGCTGCTATCTACTTCAGCGATTGACAGCGTAGAATGAAGG
- binding signal (PBM z-score against 500 random probes) (PXR (Homo sapiens)): -0.29

Sequence: GCAGATGGGAGAGTTCCCTTGATTCCTTTGTGGGAGGCGATTGACAGCGTAGAATGAAGG
- binding signal (PBM z-score against 500 random probes) (RARa (Homo sapiens)): 0.21

Sequence: GCCAGTACTGTTGCTAGAACTACAACCTGTATGCTGGCGATTGACAGCGTAGAATGAAGG
- binding signal (PBM z-score against 500 random probes) (PXR (Homo sapiens)): -0.67

Sequence: GCGAGATGCAGCCAACCTGTAGAGATCCTGTGGAGAGCGATTGACAGCGTAGAATGAAGG
- binding signal (PBM z-score against 500 random probes) (PXR (Homo sapiens)): -0.52

Sequence: GCAAGAGAGAGACACAATGGCTAAAGAAGGAAGAGTGCGATTGACAGCGTAGAATGAAGG
- binding signal (PBM z-score against 500 random probes) (PPARg (Homo sapiens)): 0.01
- binding signal (PBM z-score against 500 random probes) (RARb (Homo sapiens)): 0.39

Sequence: GCACACTGACAATAGCATACACCTTTCCAGAATGCGGCGATTGACAGCGTAGAATGAAGG
- binding signal (PBM z-score against 500 random probes) (PXR (Homo sapiens)): 0.22

Sequence: GCCACATGAAAGCTGACAACAGAAGCACTCCAACACGCGATTGACAGCGTAGAATGAAGG
- binding signal (PBM z-score against 500 random probes) (PXR (Homo sapiens)): 0.49

Sequence: GCTGATGGGCTTCAAGTTGCTAACCCAGGAAATGGAGCGATTGACAGCGTAGAATGAAGG
- binding signal (PBM z-score against 500 random probes) (PPARg (Homo sapiens)): 0.11
- binding signal (PBM z-score against 500 random probes) (PXR (Homo sapiens)): -0.15
- binding signal (PBM z-score against 500 random probes) (VDR (Homo sapiens)): -0.21

Sequence: GCCCAAGATCTTGCCACTGCACTCCAGCCTGGATGAGCGATTGACAGCGTAGAATGAAGG
- binding signal (PBM z-score against 500 random probes) (RARb (Homo sapiens)): 0.21

Sequence: GCACAGCAAAGAGGCCAGCATGGCTAGAGCAGATCAGCGATTGACAGCGTAGAATGAAGG
- binding signal (PBM z-score against 500 random probes) (RARb (Homo sapiens)): -0.76

Sequence: GCTGCTGACTTGCTGGTTAGAGGGAACACATTCCCAGCGATTGACAGCGTAGAATGAAGG
- binding signal (PBM z-score against 500 random probes) (RARg (Homo sapiens)): -0.18

Sequence: GCGCAGTGGGTCACTTGAGACCAGCCTGGGCAACGCGCGATTGACAGCGTAGAATGAAGG
- binding signal (PBM z-score against 500 random probes) (VDR (Homo sapiens)): -0.92
